Experimental data reported in the supplement of paper PMC3334620.
The full ranking holds about 33,000 sequences; the median of “E-score (-0.5 to 0.5)” is about -0.011, and the highest 2% start at about 0.28. The list shows a part of the results.

These sequences were tested against T1, Gcr1 (UniProt P07261) (assay: PBM E-score (8-mer binding enrichment) (E-score (-0.5 to 0.5)); higher = stronger / more preferred TF binding; most listed sequences are background and not binding sites). Details: protein concentration: 100 nM; construct: GST-full length.
T1 sequence: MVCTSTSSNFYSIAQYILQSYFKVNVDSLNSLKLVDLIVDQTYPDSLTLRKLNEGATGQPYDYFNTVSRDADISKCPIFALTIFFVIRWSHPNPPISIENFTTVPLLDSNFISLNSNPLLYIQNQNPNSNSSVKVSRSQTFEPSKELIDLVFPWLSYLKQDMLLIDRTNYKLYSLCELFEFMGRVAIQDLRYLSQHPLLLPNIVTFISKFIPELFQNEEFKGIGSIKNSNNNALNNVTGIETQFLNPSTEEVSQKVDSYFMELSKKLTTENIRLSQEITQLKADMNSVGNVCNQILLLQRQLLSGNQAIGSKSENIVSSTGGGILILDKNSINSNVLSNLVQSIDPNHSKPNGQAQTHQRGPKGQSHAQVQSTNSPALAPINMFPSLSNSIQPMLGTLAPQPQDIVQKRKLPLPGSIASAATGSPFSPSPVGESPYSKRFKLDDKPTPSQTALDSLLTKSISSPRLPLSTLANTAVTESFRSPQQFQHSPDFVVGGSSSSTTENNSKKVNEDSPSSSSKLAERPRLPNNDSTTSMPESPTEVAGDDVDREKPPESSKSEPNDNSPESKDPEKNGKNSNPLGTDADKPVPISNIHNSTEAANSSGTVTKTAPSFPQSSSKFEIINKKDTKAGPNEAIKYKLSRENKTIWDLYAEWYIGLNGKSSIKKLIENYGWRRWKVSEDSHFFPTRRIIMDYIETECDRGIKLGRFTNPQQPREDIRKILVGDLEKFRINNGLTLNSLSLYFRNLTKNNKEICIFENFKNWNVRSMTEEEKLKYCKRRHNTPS
Method in brief: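 Using PURExpress in vitro transcription/translation, GST-tagged yeast transcription factors were made in full-length or DNA-binding-domain form. These were applied at about 100-200 nM to double-stranded universal all-10-mer Agilent arrays, and bound protein was detected with fluorescent anti-GST. Scans were normalised with masliner before the Universal PBM Analysis Suite assigned E-scores to ungapped eight-base words pooled with their reverse complements.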

First: ATCAGTCG
Second: AAAGGCCG
The “PBM E-score” value of the first is higher: 0.0288 for the first, -0.147 for the second.

First: GTGTCAAA
Second: ACGAGACA
The “PBM E-score” value of the first is higher: 0.064 for the first, -0.115 for the second.

Compared with ATCTATGG, AATGGGTG is higher in “PBM E-score” value: -0.0486 for the first, 0.133 for the second.

First: ATACTTGG
Second: GGGGAGTA
The “PBM E-score” value of the first is higher: -0.0135 for the first, -0.115 for the second.

First: ACGCCCTC
Second: CGAAGGTC
The “PBM E-score” value of the first is lower: -0.2 for the first, -0.186 for the second.

Going from ATCGGGGG to ATTGGCTC, the “PBM E-score” value rises from -0.0694 to 0.00258.

Going from CGTTGCGC to GACAAAAA, the “PBM E-score” value rises from 0.0871 to 0.197.

Going from GAATACAA to GCGAAAGA, the “PBM E-score” value falls from 0.111 to -0.211.

Compared with AGCGAAAT, AACGGTAC is lower in “PBM E-score” value: -0.0598 for the first, -0.156 for the second.

Going from TGAGTCAA to AGCCAGCA, the “PBM E-score” value falls from 0.0503 to -0.0416.

First: CTACTTTA
Second: CTCGTGTC
The “PBM E-score” value of the first is higher: 0.0783 for the first, 0.0176 for the second.

First: GCATTCGC
Second: AATGATCA
The “PBM E-score” value of the first is lower: -0.0396 for the first, 0.0586 for the second.

Going from CCGCCCGG to GAGCAGTA, the “PBM E-score” value rises from -0.028 to 0.0264.

First: CATCTATA
Second: AATTATGC
The “PBM E-score” value of the first is higher: 0.122 for the first, 0.0621 for the second.

Compared with GCCTCAGC, AATTAGGT is higher in “PBM E-score” value: -0.158 for the first, 0.0846 for the second.

Going from CGGACGTA to CCGCCGAC, the “PBM E-score” value rises from -0.119 to -0.06.

Compared with ATCGAATC, GCAAATGC is lower in “PBM E-score” value: 0.0186 for the first, -0.0704 for the second.

Compared with ACTAGGAA, ATCTCCCG is higher in “PBM E-score” value: -0.0866 for the first, -0.0408 for the second.

Going from CGTTAGTC to ATTAAGCC, the “PBM E-score” value rises from -0.1 to 0.0811.

Compared with CTCTGAAA, AGCGACCA is higher in “PBM E-score” value: 0.162 for the first, 0.257 for the second.

First: CAGTTCTA
Second: CTCTACAG
The “PBM E-score” value of the first is lower: -0.0976 for the first, -0.0206 for the second.

Going from GTTCACGA to AAGATTCT, the “PBM E-score” value rises from -0.123 to 0.264.

First: GGATGTAC
Second: AAACGCGG
The “PBM E-score” value of the first is lower: -0.0621 for the first, 0.0452 for the second.

First: ATAGCTAA
Second: ATGGCTAA
The “PBM E-score” value of the first is higher: -0.0177 for the first, -0.14 for the second.

First: CCGAGGCA
Second: CACGCCTC
The “PBM E-score” value of the first is lower: -0.244 for the first, -0.0746 for the second.

Going from CCGTCTAC to CTTTCAAA, the “PBM E-score” value rises from -0.0528 to 0.209.

Compared with ATTGCTCG, ACCTGACT is higher in “PBM E-score” value: -0.154 for the first, 0.0172 for the second.

Compared with AAACGGAT, GCACTTAA is lower in “PBM E-score” value: 0.155 for the first, 0.106 for the second.

Compared with GCCGAATA, CTCGACCA is lower in “PBM E-score” value: 0.2 for the first, -0.206 for the second.

First: GGTGCACC
Second: CAGAATCA
The “PBM E-score” value of the first is lower: -0.0928 for the first, -0.0432 for the second.

Compared with AACTATAG, AATGTACA is higher in “PBM E-score” value: 0.0658 for the first, 0.11 for the second.

First: CCTAGTAA
Second: CATCATCC
The “PBM E-score” value of the first is lower: -0.0196 for the first, -0.0162 for the second.

Compared with GGCTACGA, ACGCAGTC is higher in “PBM E-score” value: -0.0566 for the first, -0.0364 for the second.

Compared with AGGACCCA, AATTGGAC is lower in “PBM E-score” value: 0.208 for the first, 0.132 for the second.

Going from CCATGCGC to GGGGTGAA, the “PBM E-score” value rises from -0.154 to -0.121.

First: GCAGTCCC
Second: CTTAATCC
The “PBM E-score” value of the first is higher: 0.0603 for the first, -0.158 for the second.

First: CATCGGTA
Second: GTTCTTAA
The “PBM E-score” value of the first is lower: 0.0128 for the first, 0.0766 for the second.

First: CTTTCTGC
Second: CCGTGAAG
The “PBM E-score” value of the first is higher: -0.11 for the first, -0.196 for the second.

First: GTCATAGA
Second: ATTGGTGG
The “PBM E-score” value of the first is lower: -0.118 for the first, 0.181 for the second.

Compared with ACGTACAT, TACTCCTA is higher in “PBM E-score” value: -0.0458 for the first, 0.0232 for the second.

Compared with GTGAACCA, GGTGTGCA is lower in “PBM E-score” value: -0.0295 for the first, -0.0866 for the second.

First: CACGTTTA
Second: CTCACCTA
The “PBM E-score” value of the first is higher: 0.0739 for the first, -0.115 for the second.

Going from CTCCAAAC to CTAGTTCC, the “PBM E-score” value falls from 0.176 to 0.0492.

Compared with ACCTAGAC, CAGGTCCG is lower in “PBM E-score” value: 0.0795 for the first, -0.249 for the second.

First: CCGGTCCA
Second: AGCTTAGG
The “PBM E-score” value of the first is higher: -0.0711 for the first, -0.145 for the second.

First: AGTAGGAA
Second: CGGGGGAA
The “PBM E-score” value of the first is higher: 0.143 for the first, -0.116 for the second.

Going from AGGTCCCA to CCAGGTGC, the “PBM E-score” value rises from -0.0217 to 0.203.

Going from AGTAGGTC to TCACTAAA, the “PBM E-score” value rises from -0.0554 to 0.134.

Going from AGCACAGG to CGACTAAA, the “PBM E-score” value rises from 0.0492 to 0.116.

First: ATCACGAA
Second: AAATAAAG
The “PBM E-score” value of the first is lower: 0.0928 for the first, 0.171 for the second.

Going from TCCGCGAA to GACAGTTA, the “PBM E-score” value falls from 0.0467 to -0.059.

First: AGATCACG
Second: AGAACTGC
The “PBM E-score” value of the first is higher: -0.0767 for the first, -0.243 for the second.

Compared with CGACGCCA, AGTGTCCA is lower in “PBM E-score” value: 0.157 for the first, 0.057 for the second.

First: AAAAGCGG
Second: CCGCGAAG
The “PBM E-score” value of the first is higher: 0.165 for the first, -0.054 for the second.

Compared with AATTGTAG, CTTTATGA is lower in “PBM E-score” value: 0.143 for the first, -0.121 for the second.

First: GAGAGTCC
Second: ACCTCGAT
The “PBM E-score” value of the first is lower: 0.0202 for the first, 0.0787 for the second.

First: AAGACAGG
Second: CATTTACG
The “PBM E-score” value of the first is higher: 0.154 for the first, 0.0351 for the second.

Going from CCGCGCTC to AACCTGCT, the “PBM E-score” value falls from -0.0657 to -0.0668.

Compared with ATCGTTAG, AATCGAGA is higher in “PBM E-score” value: -0.0624 for the first, 0.0211 for the second.

Compared with ATGCGAAC, GGTCTTTA is lower in “PBM E-score” value: 0.0123 for the first, -0.0204 for the second.

First: ATAATCTC
Second: TGAAGCAA
The “PBM E-score” value of the first is higher: -0.0588 for the first, -0.125 for the second.

Compared with CCTGACTA, AGAATTAG is higher in “PBM E-score” value: 1e-05 for the first, 0.051 for the second.

Going from GTTTGTCA to ATGCCTAC, the “PBM E-score” value rises from -0.161 to -0.0791.

First: AGGGGCAG
Second: ACCGATAC
The “PBM E-score” value of the first is higher: 0.00723 for the first, -0.0146 for the second.

Going from ACAAGACA to GGTAAGTA, the “PBM E-score” value rises from -0.108 to 0.0636.

First: GCCGTAGA
Second: ATTGGTAG
The “PBM E-score” value of the first is higher: -0.0195 for the first, -0.0441 for the second.

Going from ATCCCGAC to AAAAGCAA, the “PBM E-score” value falls from 0.0526 to 0.0331.

Compared with ATGCGTTA, GCTTCTTA is higher in “PBM E-score” value: -0.0638 for the first, 0.338 for the second.

Compared with GAATCGCA, CGTAGCGC is lower in “PBM E-score” value: -0.111 for the first, -0.135 for the second.

Going from AATAGCAA to CGTAGTAG, the “PBM E-score” value falls from 0.0972 to -0.0254.

Compared with ATACGGAG, ATTTCGAG is higher in “PBM E-score” value: 0.0396 for the first, 0.0797 for the second.

Going from GACCTCGC to AATGCACG, the “PBM E-score” value falls from -0.215 to -0.246.

Going from AGTTTAGC to CAGTTTAC, the “PBM E-score” value rises from -0.0273 to -0.0219.

First: CGTTTAAA
Second: CCGATGGA
The “PBM E-score” value of the first is higher: 0.132 for the first, -0.189 for the second.

Going from GAAGACAC to AGCCACAA, the “PBM E-score” value rises from -0.104 to 0.15.

First: CAAAATCC
Second: ATAACCAA
The “PBM E-score” value of the first is higher: 0.0235 for the first, -0.00969 for the second.

Going from AAGTCACG to ATAATCCC, the “PBM E-score” value rises from -0.0643 to -0.00771.

First: AACCCGTG
Second: AACTTGCC
The “PBM E-score” value of the first is lower: -0.144 for the first, -0.0579 for the second.

First: CGAAGTTC
Second: GGAATTCC
The “PBM E-score” value of the first is lower: -0.0413 for the first, 0.426 for the second.

Compared with GAACCCGC, AACGAGGA is lower in “PBM E-score” value: 0.106 for the first, -0.0643 for the second.

Compared with CGGTCGGC, AGAGTTAA is higher in “PBM E-score” value: -0.175 for the first, -0.109 for the second.

First: GCAACCGA
Second: GGATGTGA
The “PBM E-score” value of the first is higher: 0.117 for the first, 0.0908 for the second.

First: TCTAAGCA
Second: AATAGTGG
The “PBM E-score” value of the first is lower: -0.0506 for the first, 0.425 for the second.

Compared with AAAAATCT, TCTACGCA is lower in “PBM E-score” value: 0.0339 for the first, -0.106 for the second.

Compared with AGAGTCGG, AGAAAAGA is lower in “PBM E-score” value: 0.0307 for the first, 0.0232 for the second.

Going from CACCAATG to GAACTCGA, the “PBM E-score” value rises from -0.0519 to 0.0624.
